Data taken from PubChem BioAssay (NCI).
Where “and” joins values, the source holds several entries; their conditions need not be identical. Identical values can stand only once.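 Each compound was tested at five concentrations against cells in 96-well plates for 48 hours. GI50 = concentration required for 50% inhibition of growth. TGI: concentration producing complete growth inhibition.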 Numbered stars: 1 amine (or outer) side, 2 acyl side, 3 side chain; on linkers, the order of the positions; unused ones are H or OH. Bridge positions count the residues as written; N and C are the ends. Square brackets hold non-standard residues; d marks the D form. Peptide text beside a SMILES is read from it. I, II: the chains in the order shown. Actinocin(9to1) = Cc1c2oc3c(C)ccc(C(=O)[*:1])c3nc-2c(C(=O)[*:2])c(N)c1=O; NMeY = CN[CH](Cc1ccc(O)cc1)C(=O)O; Sar = CNCC(=O)O

System: NCI-H322M lung
Experiment: NCI tumour cell line growth inhibition, 48 h

CC1(C)C(C#N)C1C1=C(N2CCOCC2)[C@]2(C)C(OC(=O)c3ccccc3)CC[C@@H]2C1 (some centres undefined)
TGI: > 100 µM

C[C@H]1[C@H]2[C@H]3CC[C@@H]4[C@@]5(C)CC[C@H](O)C(C)(C)[C@@H]5CC[C@@]4(C)[C@]3(C)C[C@H](O)[C@@]2(C)C[C@H]2O[C@]21C
TGI: 58.3 µM

O=S(=O)(O)CCCc1cccc2ccccc12
TGI: > 100 µM

COc1cccc(C(=O)Oc2ccc(OS(=O)(=O)c3ccc(C)cc3)cc2)c1C#N
TGI: > 100 µM

COc1cccc(CCNC(=O)Cc2ccccc2CCO)c1
TGI: > 100 µM

CSC1=Nc2c(c(C)c(C)n2COC(CO)CO)C2=NC(=O)C(C)N12 (centres undefined)
GI50: > 100 µM
TGI: > 100 µM

O=C(/C=C/c1ccccc1)Oc1cccc(O)c1
TGI: > 100 µM

c1ccc(-c2nnc(-c3ccccn3)s2)nc1
GI50: > 100 µM
TGI: > 100 µM

COC[C@@H](N=CC(C)(C)C)C(C)C
TGI: > 100 µM

C[N+](C)(C)CC1CCCc2ccccc2C1=O (centres undefined)
TGI: 32.4 µM

Brc1ccc2[nH]cc(-c3csc(-c4c[nH]c5ccccc45)n3)c2c1
TGI: 9.97 µM

COc1cc(OC)cc(Oc2nc3ccccc3nc2C(F)(F)F)c1
TGI: > 100 µM

Cc1c2oc3c(C)ccc(C(=O)NC4C(=O)NC(C(C)C)C(=O)N5CCCC5C(=O)N(C)CC(=O)N(C)C(Cc5ccc(O)cc5)C(=O)OC4C)c3nc-2c(C(=O)NC2C(=O)NC(C(C)C)C(=O)N3CCCC3C(=O)N(C)CC(=O)N(C)C(Cc3ccc(O)cc3)C(=O)OC2C)c(N)c1=O (centres undefined) (I: TVP[Sar][NMeY] / II: TVP[Sar][NMeY]; ester I:1-I:C, II:1-II:C; linker I:N-II:N via Actinocin(9to1); configuration not given here)
GI50: 0.0285 µM and 0.0106 µM
TGI: > 0.77 µM

O=c1oc2ccc3ccccc3c2cc1-c1nc2ccccc2s1
TGI: > 100 µM

CCCC(=O)NC(NC1CCCCC1)(C(=O)OCC)C(F)(F)F (centres undefined)
TGI: > 100 µM

Cn1c(I)c(C#CCO[Si](C)(C)C(C)(C)C)c(=O)[nH]c1=O
GI50: > 65.2 µM
TGI: > 100 µM

CN1CC(=O)N2Cc3ccccc3-n3cccc3C2C1 (centres undefined)
TGI: > 100 µM

CCCCOC(=O)CNC(=O)OC/C=C/C#CC#C/C=C/COC(=O)NCC(=O)OCCCC
TGI: > 10 µM

COc1ccccc1/C=N\N/C(N)=N\N=C\c1ccccc1OC
GI50: 0.542 µM
TGI: 8.08 µM

Cc1ccc(S(=O)(=O)c2[nH]cc(/C(=C\C3CCCCC3)[N+](=O)[O-])c2C2CCCCC2)cc1
TGI: 3.06 µM

CC(C)NC(=O)OCc1c(COC(=O)NC(C)C)c(-c2cc[n+](COC(=O)C3CC3)cc2)n2c1CCC2
TGI: > 100 µM

CC(=O)Nc1ccc(S(=O)(=O)N2C(=O)CCC2C(=O)Nc2ccc(Br)cc2)cc1 (centres undefined)
GI50: 4.96 µM
TGI: 23.9 µM

CCOC(=O)C(C#N)C1=CC(=O)C(=O)c2ccc(OC)cc21 (centres undefined)
TGI: 79.8 µM

O=c1[nH]nnc2c1sc1ncccc12
TGI: > 100 µM

O=c1/c(=C/c2ccccc2[N+](=O)[O-])sc2nnc(-c3ccco3)n12
TGI: > 100 µM

COc1cc(OCc2cccc(-c3ccc(C(O)c4nccs4)cc3)c2C)cc(OC)c1C=O (centres undefined)
GI50: 3.73 µM
TGI: 14.6 µM

CCN(CC)CCNc1ccc2nnn3c4ccc(OCCN(CC)CC)cc4c(=O)c1c23
TGI: > 100 µM

CC(=O)c1ccccc1NP(=O)(c1ccccc1)c1ccccc1
TGI: > 100 µM

CC(C)(C)NNC(=O)CCn1[nH]c(=O)c(Cl)c(Cl)c1=O
TGI: > 100 µM

COc1cc(OC)c2nc(C)c(CCCl)c(Cl)c2c1
TGI: > 100 µM

N#CC1C(=S)NC(c2ccccc2)=CC12CCCCC2 (centres undefined)
TGI: 63.3 µM

CC1(C)COC(C2(C)C(=O)C=C(c3ccccc3)c3ccccc32)=N1 (centres undefined)
TGI: > 100 µM

CNCc1ccccc1-c1csc([C@@H](C)Nc2nc(C)nc3cc(OC)c(OC)cc23)c1
GI50: 1.41 µM
TGI: 4.8 µM

CSc1nc(=O)n(CCC#N)nc1SC
TGI: > 100 µM

COc1cccc(C2c3cc4c(cc3OC(N3CCCCC3)C2C)OCO4)c1O (centres undefined)
TGI: 39.7 µM

N#CN/C(N)=N/CO
TGI: > 100 µM

COc1cc(C(=O)N2CCN(C=O)C2=S)cc(OC)c1OC
GI50: 24.8 µM
TGI: 65.4 µM

N#Cc1c(NC(=O)NCc2ccccc2)sc2c1CCCCC2
GI50: 0.435 µM
TGI: > 100 µM

CN(CCSCCN(C)C(=O)OC(C)(C)C)C(=O)OC(C)(C)C
TGI: > 100 µM

CCn1c(-c2ccccc2)cs/c1=N\C(P(=O)(O)O)P(=O)(O)O
TGI: > 100 µM

COC(=O)C[C@](O)(CCCC(C)(C)O)C(=O)O[C@@H]1C(OC)=C[C@]23CCCN2CCc2cc4c(cc2[C@H]13)OCO4
TGI: 5.15 µM and 0.556 µM

COC(=O)c1ccc(/C=C/c2cc(O)ccc2O)cc1
TGI: 87.6 µM

[N-]=[N+]=NC1(Cc2ccccc2)C(=O)c2cccc3c2N(CCC3)C1=O (centres undefined)
TGI: > 100 µM

N#C[C@H](c1ccccn1)c1nc2ccccc2nc1Cl
TGI: > 100 µM

O=[N+]([O-])C[C@@]12O[C@]3(O)C4C5CC(C6C5C3C61)C42 (some centres undefined)
TGI: > 100 µM

CC(=O)N=C1N(/C=C2\C(=O)Oc3ccccc3C2=O)C(=O)/C(=C/c2cccc(Cl)c2Cl)N1C
TGI: > 100 µM

CO/N=C(\C)c1ccc(Nc2nc3ccccc3c3occc23)cc1
TGI: 29.6 µM

NC(=S)N/N=C(\CC1OC(=O)c2ccccc21)c1ccc(Cl)cc1 (centres undefined)
TGI: > 100 µM

CN1CCc2c([nH]c3ccccc23)C1
TGI: > 100 µM

Nc1ccc2c(c1)C(=O)N1CCC[C@H]1C(=O)N2
TGI: > 100 µM

CCC(=O)CC(=O)CCC(=O)Nc1cc(C)ccc1C
TGI: > 100 µM

CC1(C)/C(=N\NC(N)=O)C2CCC1C2 (centres undefined)
TGI: > 100 µM

O=C(Nc1ccc2ncccc2c1)Nc1ccc2ncccc2c1
TGI: > 100 µM

NC(=S)N/N=C/C(=O)O
GI50: > 100 µM
TGI: > 100 µM

Cc1[nH]c(=O)nc2nc3ccc(Cl)cc3c(NCCNCCO)c12
TGI: 21.4 µM

O=C1C2SC34c5c2c2ccccc2n5CCC3CCCN14 (centres undefined)
TGI: > 100 µM

CCO/C(O)=C(/C(=N)N1CCOCC1)C(=O)Nc1ccc(F)cc1
TGI: > 100 µM

CCC12CCCN(Cc3ccccc3)C1c1c(n(C)c3ccccc13)CC2 (centres undefined)
TGI: > 253 µM

NC(CCCCCP(=O)(c1ccccc1)C1C=CC=CC1)C(=O)O (centres undefined)
TGI: > 100 µM

C#CCOc1cccc(-c2ncc3cc(NC(=O)CCl)ccc3n2)c1
GI50: 1.73 µM
TGI: 3.14 µM

Fc1ccc2c(c1)nc1n2C(c2c(Cl)cccc2Cl)SC1 (centres undefined)
TGI: 34.5 µM

C=C1C(=O)OC2CC(C)C(C(CC(C)=O)OC(C)=O)=CCC12 (centres undefined)
TGI: > 89.7 µM

O=[N+]([O-])c1cccc(C2=NN(c3ccccc3)C[N+](c3ccc(Br)cc3)=N2)c1
TGI: > 100 µM

NC(=O)/C=C/C(=O)c1c(Cl)cccc1Cl
GI50: 1.64 µM
TGI: 3.32 µM

CC12C/C(=C\c3ccccc3)C(=O)C3C1CCCC32
TGI: > 100 µM

CC(=O)OC(OC(C)=O)c1ccc2ccc3cccc4ccc1c2c34
TGI: > 100 µM

NC(N)=NCCN1CC2CCC(CC2)C1
TGI: > 100 µM

CO[C@@]12C[C@@H](C)C3=CCC(C)=C3CC1=C(C)C(=O)O2
TGI: > 100 µM

O=C(O)COc1ccc2c(=O)c3sc4c(=O)c5ccccc5c(=O)c4c3c(=O)c2c1
GI50: 5.29 µM
TGI: 18.1 µM

CCN(CC)Cc1ccc(C(=S)Nc2ccc(Cl)cc2)s1
TGI: 23.5 µM

O=C(Nc1ccc(Br)cc1F)c1cc(F)ccc1O
GI50: 0.413 µM
TGI: > 28.9 µM

CC(C)(C)OC(=O)N(CCCCN(CCCNC(=O)C(F)(F)F)C(=O)OC(C)(C)C)CCCNC(=O)C(F)(F)F
TGI: > 100 µM

C=CCCON(C(=O)OC(C)(C)C)C(C)(C)C
TGI: > 100 µM

CC1=NN(c2nc(N)nc(/C(C#N)=C\c3ccc([N+](=O)[O-])s3)n2)C(C)(C)C1
TGI: 57.2 µM
